# In the supplement of paper PMC12297408:
# Where a name gives a salt, the structure may show the parent alone. In all, about 1,300 compounds went through this assay and about 40 (3%) showed activity. The list shows a part of the results.
# Test system: Plasmodium falciparum NF54/iGP1_RE9H ulg8 stage V gametocytes
# Assay: gametocyte viability (luciferase signal relative to DMSO control) (% of DMSO control); higher = less gametocytocidal activity, active = 50 or less
# Conditions: exposure time: 72 h
# Summary of the method: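 NF54/iGP1_RE9Hulg8 stage V gametocytes (day 12; ~2.5% gametocytemia, 3% hematocrit) in medium with 0.5% Albumax II were added to 96-well plates of nanolitre-spotted compounds (10 mM DMSO stocks), giving 10 µM or 1 µM, one well each. Plates were incubated 72 h at 37 °C. Then 90 µl was mixed with 10 µl D-luciferin (30 mg/ml) and luminescence was read on an IVIS Lumina II. Viability is relative to the mean of plate DMSO vehicle controls.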
Structure (SMILES),gametocyte viability (concentration: 1 µM),gametocyte viability (concentration: 10 µM)
C=C1CC[C@@]2(O)[C@H]3Cc4ccc(O)c5c4[C@@]2(CCN3CC2CC2)[C@H]1O5 [Nalmefene hydrochloride],inactive: 97.6,inactive: 95.3
O=[N+]([O-])O[C@H]1CO[C@H]2[C@@H]1OC[C@H]2O[N+](=O)[O-] [Isosorbide dinitrate],inactive: 85.6,inactive: 82.1
NCC1(CC(=O)O)CCCCC1 [Gabapentin],inactive: 96.8,inactive: 93.9
N[C@@H]1C[C@H]1c1ccccc1 [Tranylcypromine hydrochloride],inactive: 92.6,inactive: 91.8
"NCC(CC(=O)O)c1ccc(Cl)cc1 (racemic) [Baclofen (R,S)]",inactive: 89.5,inactive: 81.8
C#C[C@]1(O)CC[C@H]2[C@@H]3CCC4=CC(=O)CCC4=C3C=C[C@@]21CC [Gestrinone],inactive: 86.6,inactive: 74.2
CN1[C@@H]2C[C@@H](OC(=O)[C@H](CO)c3ccccc3)C[C@H]1[C@@H]1O[C@@H]12 [Scopolamine hydrochloride],inactive: 95.7,inactive: 94.5
"CN1CCC2(C)c3cc(O)ccc3N(C)C12 (single isomer, unassigned; (-)) [(-)-Eseroline fumarate salt]",inactive: 74.2,active: 44.8
CC(NC(C)(C)C)C(=O)c1cccc(Cl)c1 (stereo unspecified) [Bupropion hydrochloride],inactive: 88.1,inactive: 88.6
CN(C)[C@@H]1C(=O)C(C(N)=O)=C(O)[C@@]2(O)C(=O)C3=C(O)c4c(O)cccc4[C@@](C)(O)[C@H]3C[C@@H]12 [Tetracycline hydrochloride],inactive: 93,inactive: 90.3
CN[C@@H]1[C@@H](O)[C@@H](O[C@@H]2[C@@H](O)[C@H](O[C@H]3O[C@H](CN)CC[C@H]3N)[C@@H](N)C[C@H]2N)OC[C@]1(C)O.CN[C@@H]1[C@@H](O)[C@@H](O[C@@H]2[C@@H](O)[C@H](O[C@H]3O[C@H]([C@@H](C)N)CC[C@H]3N)[C@@H](N)C[C@H]2N)OC[C@]1(C)O.CN[C@@H]1[C@@H](O)[C@@H](O[C@@H]2[C@@H](O)[C@H](O[C@H]3O[C@H]([C@@H](C)NC)CC[C@H]3N)[C@@H](N)C[C@H]2N)OC[C@]1(C)O [Gentamicine sulfate],inactive: 90.6,inactive: 99.8
O=C1CC[C@@]2(O)[C@H]3Cc4ccc(O)c5c4[C@@]2(CCN3CC2CC2)[C@H]1O5 [Naltrexone hydrochloride dihydrate],inactive: 93.5,inactive: 91.9
CC(=O)O[C@H]1C[C@@H]2CC[C@@H]3[C@H](CC[C@@]4(C)[C@H]3C[C@H]([N+]3(C)CCCCC3)[C@@H]4OC(C)=O)[C@@]2(C)C[C@@H]1[N+]1(C)CCCCC1 [Pancuronium bromide],inactive: 83.1,inactive: 82.2
c1ccc2c(c1)Nc1ccccc1S2 [Phenothiazine],inactive: 79.5,inactive: 81
O=c1c2ccccc2[se]n1-c1ccccc1 [Ebselen],inactive: 81.8,inactive: 89.4
C[C@]12CCC(=O)C=C1C=C[C@@H]1[C@@H]2CC[C@@]2(C)[C@H]1CC[C@@]2(O)CCC(=O)O [Canrenoic acid potassium salt],inactive: 83.5,inactive: 82.3
C(#CCN1CCCC1)CN1CCCC1 [Tremorine dihydrochloride],inactive: 91.5,inactive: 94.7
C=CCN1CC[C@]23c4c5ccc(O)c4O[C@H]2C(=O)CC[C@@]3(O)[C@H]1C5 [Naloxone hydrochloride],inactive: 86.4,inactive: 84.5
CCCC(C)C1(CC)C(=O)NC(=O)NC1=O (stereo unspecified) [Pentobarbital],inactive: 98.2,inactive: 91.6
CN[C@@H]1C[C@@H](c2ccc(Cl)c(Cl)c2)c2ccccc21 [Indatraline hydrochloride],inactive: 85.6,inactive: 51.6
CN1[C@@H]2CC[C@H]1C[C@@H](OC(=O)[C@H](CO)c1ccccc1)C2 [Hyoscyamine (L)],inactive: 86.7,inactive: 91.7
CC(C)N(CCC(C(N)=O)(c1ccccc1)c1ccccn1)C(C)C (stereo unspecified) [Disopyramide],inactive: 87,inactive: 90.6
C[C@H](N)[C@H](O)c1ccc(O)c(O)c1 [Levonordefrin],inactive: 89,inactive: 93.9
O=[N+]([O-])O[C@@H]1CO[C@H]2[C@@H]1OC[C@@H]2O [Isosorbide mononitrate],inactive: 94.9,inactive: 98.5
C[C@]12CC[C@H]3[C@@H](CCC4=CC(=O)CC[C@@H]43)[C@@H]1CC[C@@H]2O [Nandrolone],inactive: 90.9,inactive: 74
COc1ccc(CN2CCNCC2)c(OC)c1OC [Trimetazidine dihydrochloride],inactive: 84.5,inactive: 87.6
S=C(NC1CCCCC1)N1CCC(c2cnc[nH]2)CC1 [Thioperamide maleate],inactive: 91.6,inactive: 79.7

Structure (SMILES),gametocyte viability (concentration: 1 µM),gametocyte viability (concentration: 10 µM)
CC(C)CC(N(C)C)C1(c2ccc(Cl)cc2)CCC1 (stereo unspecified) [Sibutramine HCl],inactive: 93.7,inactive: 94.8
O=c1[nH]c2ccccc2n1CCCN1CCC(n2c(=O)[nH]c3cc(Cl)ccc32)CC1 [Domperidone],inactive: 83.2,inactive: 75
CC(C)[N+](C)(CCC(C(N)=O)(c1ccccc1)c1ccccc1)C(C)C [Isopropamide iodide],inactive: 82.4,inactive: 90.3
C#C[C@]1(O)CC[C@H]2[C@@H]3CCC4=CC(=O)CC[C@]4(C)[C@H]3CC[C@@]21C [Ethisterone],inactive: 96,inactive: 96.1
"CNCC(O)c1ccc(O)cc1 (racemic) [(+,-)-Synephrine]",inactive: 80.4,inactive: 84
C[C@]12CC[C@@H](O)C[C@@H]1CC[C@@H]1[C@@H]2CC[C@]2(C)C(=O)CC[C@@H]12 [Androsterone],inactive: 89,inactive: 85.4
C=CC[C@]1(O)CC[C@H]2[C@@H]3CCC4=CC(=O)CCC4=C3C=C[C@@]21C [Altrenogest],inactive: 56.8,active: 33.1
CC(Cc1ccc(O)cc1)NCC(O)c1cc(O)cc(O)c1 (stereo unspecified) [Fenoterol hydrobromide],inactive: 79.6,inactive: 89.2
C1CCc2nnnn2CC1 [Pentylenetetrazole],inactive: 80.8,inactive: 82.8
COc1ccc2c(c1)[C@]13CCCC[C@@H]1[C@H](C2)N(C)CC3 [Dextromethorphan hydrobromide monohydrate],inactive: 76.5,inactive: 84.7
CCN[C@@H](C)Cc1cccc(C(F)(F)F)c1 [Dexfenfluramine hydrochloride],inactive: 95.2,inactive: 90.6
CC[C@@H](C(N)=O)N1CCCC1=O [Levetiracetam],inactive: 83.8,inactive: 85.3
COc1ccc(C(=O)N2CCCC2=O)cc1 [Aniracetam],inactive: 80.6,inactive: 85.7
C[C@]12CCC(=O)C=C1CC[C@@H]1[C@@H]2C(=O)C[C@]2(C)C(=O)CC[C@@H]12 [Adrenosterone],inactive: 94.8,inactive: 94.5
C[N+]1(C)CCOC(O)(c2ccc(-c3ccc(C4(O)C[N+](C)(C)CCO4)cc3)cc2)C1 (stereo unspecified) [Hemicholinium bromide],inactive: 93.8,inactive: 92.6
CCCN1C[C@H](CSC)C[C@@H]2c3cccc4[nH]cc(c34)C[C@H]21 [Pergolide mesylate],inactive: 78.2,inactive: 82.3
COc1ccc(CCN)cc1OC [Homoveratrylamine],inactive: 84.2,inactive: 78.3
c1ccc2nc(N3CCNCC3)ccc2c1 [Quipazine dimaleate salt],inactive: 90.4,inactive: 71.9
C[N+](C)(C)CCCCCCCCCC[N+](C)(C)C [Decamethonium bromide],inactive: 90.1,inactive: 82.8
CN1C[C@H](C(=O)N[C@]2(C)O[C@@]3(O)[C@@H]4CCCN4C(=O)[C@H](Cc4ccccc4)N3C2=O)C[C@@H]2c3cccc4[nH]cc(c34)C[C@H]21 [Dihydroergotamine tartrate],inactive: 66.8,active: 42.4
C[N+]1(C)[C@@H]2CC[C@H]1C[C@@H](OC(=O)C(CO)c1ccccc1)C2 (stereo partly specified) [Methylatropine nitrate],inactive: 81.3,inactive: 90.8
CC(CCc1ccccc1)NC(C)C(O)c1ccc(O)cc1 (stereo unspecified) [Nylidrin],inactive: 97.7,inactive: 97.8
COc1cccc(C2(O)CCCCC2CN(C)C)c1 (stereo unspecified) [Tramadol hydrochloride],inactive: 80.4,inactive: 88.2
CC(=O)OC1CN2CCC1CC2 (stereo unspecified) [Aceclidine Hydrochloride],inactive: 82.8,inactive: 86.9
CCCC[N+]1(C)[C@@H]2CC(OC(=O)[C@H](CO)c3ccccc3)C[C@H]1[C@@H]1O[C@@H]12 (stereo partly specified) [Butylscopolammonium (n-) bromide],inactive: 93.4,inactive: 98.4
CN(C)[C@@H]1C(=O)C(C(N)=O)=C(O)[C@@]2(O)C(=O)C3=C(O)c4c(O)ccc(Cl)c4[C@@](C)(O)[C@H]3C[C@@H]12 [Chlortetracycline hydrochloride],inactive: 88.2,inactive: 88.7
